Results reported in publication PMC4336329 (PLoS ONE, 2015).
About 14,000 (4.5%) of roughly 310,000 compounds showed an effect of 50% or more. The effect is printed as a negative number. The list shows a part of the results.

molecular target: human ether-à-go-go-related gene (hERG) potassium channel (human, UniProt Q12809); experiment: primary screen, population patch clamp on CHO cells stably expressing hERG
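Note: peak tail current of the secondary pulse compared with the same well before compound.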

Sequence of human ether-à-go-go-related gene (hERG) potassium channel (Q12809 whole entry, looked up): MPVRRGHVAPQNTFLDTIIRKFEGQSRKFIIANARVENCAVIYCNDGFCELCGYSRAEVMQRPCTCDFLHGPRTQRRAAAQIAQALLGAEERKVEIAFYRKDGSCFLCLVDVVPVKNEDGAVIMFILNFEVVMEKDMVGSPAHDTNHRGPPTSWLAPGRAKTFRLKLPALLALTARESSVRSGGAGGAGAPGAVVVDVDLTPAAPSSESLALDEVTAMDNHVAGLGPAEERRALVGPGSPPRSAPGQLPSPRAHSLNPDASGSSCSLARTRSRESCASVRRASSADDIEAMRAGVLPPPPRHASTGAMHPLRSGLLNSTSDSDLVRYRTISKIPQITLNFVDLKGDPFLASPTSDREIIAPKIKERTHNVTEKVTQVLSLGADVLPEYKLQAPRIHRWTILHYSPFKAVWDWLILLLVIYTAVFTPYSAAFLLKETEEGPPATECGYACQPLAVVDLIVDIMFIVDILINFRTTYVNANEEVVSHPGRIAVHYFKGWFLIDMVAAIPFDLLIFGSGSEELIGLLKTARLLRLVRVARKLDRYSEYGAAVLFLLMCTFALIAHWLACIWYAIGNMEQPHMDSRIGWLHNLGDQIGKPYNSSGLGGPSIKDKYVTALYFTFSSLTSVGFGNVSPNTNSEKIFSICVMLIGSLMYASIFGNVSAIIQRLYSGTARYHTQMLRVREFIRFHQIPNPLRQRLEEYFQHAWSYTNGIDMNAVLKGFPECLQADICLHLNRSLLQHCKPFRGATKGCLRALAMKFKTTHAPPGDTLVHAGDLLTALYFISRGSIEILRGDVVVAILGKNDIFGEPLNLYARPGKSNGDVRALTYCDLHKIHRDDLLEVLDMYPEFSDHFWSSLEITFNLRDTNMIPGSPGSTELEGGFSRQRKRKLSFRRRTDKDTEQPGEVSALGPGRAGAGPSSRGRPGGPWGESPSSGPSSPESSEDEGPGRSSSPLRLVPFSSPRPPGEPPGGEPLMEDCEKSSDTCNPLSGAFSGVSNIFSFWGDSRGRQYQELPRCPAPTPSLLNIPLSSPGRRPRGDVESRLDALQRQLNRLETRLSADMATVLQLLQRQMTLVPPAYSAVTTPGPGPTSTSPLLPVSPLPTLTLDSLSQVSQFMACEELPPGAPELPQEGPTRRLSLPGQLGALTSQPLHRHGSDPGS

In order of falling “hERG current change (%, negative = inhibition) at 10uM” value:
1. Cc1ccc(CN(Cc2ccccc2)C(=S)Nc2ccccc2C)o1  36.2%
2. O=C(Nc1ccccc1)Nc1ccc2c(c1)CCC2  29.8%
3. CCSc1n[nH]c(=S)s1  29.4%
4. CC1CCCCC1N=C1NC(C)(C)CS1 (stereo not drawn)  21.8%
5. Cc1nc2ccccc2n1S(=O)(=O)N(C)C  21.7%
6. Cc1ccc(NC(=O)C(=O)NCc2ccco2)c(C)c1  20%
7. COc1cc(CN/C(C)=C(\C#N)C(N)=O)cc(OC)c1OC  19.9%
8. O=C1CN(c2ccc(F)cc2)C(=S)N1c1ccccc1  17.6%
9. CCCCCC(=O)N/N=C/c1cccs1  14.1%
10. O=C(c1ccncc1)N(c1ccc2oc3c(c2c1)CCCC3)S(=O)(=O)c1ccc(F)cc1  13.6%
11. C/C(=N\Nc1ccccc1C)c1cccnc1.Cl  12.2%
12. COc1cccc(NC(=O)CN2CCCCCC2)c1.Cl  11.6%
13. CCOc1ccccc1/C=N\Nc1cnn(Cc2ccccc2)c(=O)c1Cl  11%
14. O=C(NCc1n[nH]c(=S)n1-c1cccc(Cl)c1)c1cccs1  9.27%
15. COC(=O)c1c(NC(=O)C2CC2)sc2c1CCCC2  8.92%
16. COCCCNC(=O)CNC(=O)c1nn(-c2ccc(OC)c(Cl)c2)c(=O)c2ccccc12  8.9%
17. CCn1c(/C(C#N)=C(\O)CCc2ccccc2)nc2ccccc21  8.24%
18. COc1ccc(/C=N/NC(=O)/C(=C/c2ccccc2)CCO)cc1  7.76%
19. Cn1cc(P(=S)(N2CCOCC2)N2CCOCC2)cc1P(=O)(N1CCOCC1)N1CCOCC1  7.36%
20. COc1cc(CNc2cccc3[nH]c(C(F)(F)F)nc23)cc(OC)c1.Cl  6.84%
21. CCCCC1(C)OC(=O)C(=Cc2ccc(N(C)C)cc2)C(=O)O1 (stereo not drawn)  6.34%
22. CC(=O)Oc1ccccc1N(C(C)=O)S(=O)(=O)c1cccc([N+](=O)[O-])c1  6.28%
23. O=c1/c(=C/c2ccco2)sc2n1CN(c1ccccc1)CN=2  5.55%
24. Cc1ccccc1C(=O)NC(CC(C)C)C(=O)Nc1ccc(F)c([N+](=O)[O-])c1 (stereo not drawn)  5.46%
25. O=C(O)CN1C(=O)/C(=C\c2cccc(OCc3ccccc3F)c2)SC1=S  5.41%
26. COc1ccc2nc(N3CCC(O)CC3)c(C#N)cc2c1  4.39%
27. OCC[C@H]1C[C@H](O)[C@@H](O)[C@@]2(Cc3ccccc3CCO2)O1  1.27%
28. COc1ccc(C(C)(C)C)cc1NC(=O)c1ccc2ncsc2c1  0.556%
29. O=C(COc1ccc(S(=O)(=O)NC2CCCCC2)cc1)Nc1ccc2c(c1)OCCO2  -0.462%
30. CCCCNC(=O)COn1nnc2ccc(S(=O)(=O)N3CCOCC3)cc21  -1.28%
31. Cc1csc(NC(=O)c2cccs2)n1  -1.76%
32. CCOC(=O)C1=C(CSc2nc3c(cc2C#N)CN(C)CC3)OC(N)=C(C#N)C1c1ccc(Cl)cc1 (stereo not drawn)  -2.47%
33. Fc1ccc(OCc2nn3c(Cn4nnc5ccccc54)nnc3s2)cc1  -2.88%
34. Fc1ccc(-c2nnn(Cc3ccccc3Cl)n2)cc1  -4.1%
35. COCCN(C(=O)CNC(=O)c1ccco1)C(C(=O)NC1CCCC1)c1ccccc1 (stereo not drawn)  -6.83%
36. CCOC(=O)C1SC2(C(F)F)CC1(O)c1c(c(OC)c3occc3c1OC)O2 (stereo not drawn)  -9%
37. O=C(c1ccccc1)c1ccc(Cn2cc(CCCO)nn2)cc1  -10.6%
38. CCCCCOC(=O)Nc1nnc(CCC)s1  -16.7%
39. CCO[C@@H]1OC(C(=O)NCc2nc3ccccc3[nH]2)=C[C@H](C2CC2)[C@H]1CCCO  -17.6%
40. CNC(=O)c1c(NC(=O)c2ccc(S(=O)(=O)N3CC(C)OC(C)C3)cc2)sc2c1CCN(C(C)C)C2 (stereo not drawn)  -26.9%
41. Cc1ccc(Cl)c(OCCCN(C)Cc2ccccc2)c1.O=C(O)C(=O)O  -30.6%
42. Cn1cc(/C=C/c2cc[n+](C)cc2)c2cc(Cl)ccc21.[I-]  -47.9%
43. CN1CCN(C(=O)C2=C[C@@H](c3ccc(C(F)(F)F)cc3)C[C@@H](OCc3ccc(CO)cc3)O2)CC1  -52.6%
44. COC(=O)c1ccc(C2/C(=C(\O)c3ccc4c(c3)OCCO4)C(=O)C(=O)N2CCCN(C)C)cc1 (stereo not drawn)  -55.9%
45. O=C(OCC(=O)N1CCN(C(=O)c2ccco2)CC1)c1ccccc1C(=O)c1ccc(Cl)cc1  -64.8%
